According to patent US20180312565A1 (Affibody, published 2018):
Where a chain is given by its changes, count along the chain named. Like-named read-outs stand apart in the source and are kept apart here.

T1: human PD-L2 Fc Chimera (R&D Systems, cat. no. 1224-PL-100) (human, UniProt Q9BQ51 20-219, biotinylated in ELISA)
T1 construct: bought; also called hPD-L2; not shown: Fc part of the bought Fc chimera, not described
T1 sequence (looked up): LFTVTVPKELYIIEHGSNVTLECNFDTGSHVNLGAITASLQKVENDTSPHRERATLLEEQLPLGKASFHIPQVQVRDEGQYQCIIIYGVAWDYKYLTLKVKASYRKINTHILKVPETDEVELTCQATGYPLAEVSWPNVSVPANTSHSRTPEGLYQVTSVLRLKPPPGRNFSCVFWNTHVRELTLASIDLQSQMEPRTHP

T2: human B7-H3 Fc Chimera (R&D Systems, cat. no. 1027-B3-100) (human, UniProt Q5ZPR3-2 29-245, biotinylated in ELISA)
T2 construct: bought; also called hB7-H3; not shown: Fc part of the bought Fc chimera, not described
T2 sequence (looked up): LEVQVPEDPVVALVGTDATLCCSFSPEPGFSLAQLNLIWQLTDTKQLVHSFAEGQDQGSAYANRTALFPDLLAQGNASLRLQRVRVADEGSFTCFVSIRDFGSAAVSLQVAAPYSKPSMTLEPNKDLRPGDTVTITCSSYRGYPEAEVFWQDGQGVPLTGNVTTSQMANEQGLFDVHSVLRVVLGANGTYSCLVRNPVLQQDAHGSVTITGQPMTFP

T3: human B7-H4 (R&D Systems, cat. no. 6576-B7-50) (human, UniProt Q7Z7D3 29-258, biotinylated in ELISA)
T3 construct: bought; also called hB7-H4
T3 sequence (looked up): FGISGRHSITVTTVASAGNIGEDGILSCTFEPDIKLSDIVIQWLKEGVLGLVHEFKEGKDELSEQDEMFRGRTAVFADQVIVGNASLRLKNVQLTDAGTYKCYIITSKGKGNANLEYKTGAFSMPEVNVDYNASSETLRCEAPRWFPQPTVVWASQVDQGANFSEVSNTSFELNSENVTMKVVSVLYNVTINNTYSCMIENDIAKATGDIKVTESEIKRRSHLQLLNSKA

B1: Z13104-ABD (designed binder)
chain: AQHDEALEVDAKYAKERNRAAYEILQLPNLTNQQHWAFIWKLMDDPSQSSELLSEAKKLNDSQAPKVDYVLAEAKVLANRELDKYGVSDYYKNLINNAKTVEGVKALIDEILAALPYVPG
notes: domain: GA3
B2: Z13112-ABD (designed binder)
chain: B1 chain with R19A, Y22F, Q26T, Q33E, M43D
notes: domain: GA3
B3: Z13115-ABD (designed binder)
chain: B1 chain with Y22S, Q26L, N32R, Q33M, M43A
notes: domain: GA3
B4: Z13134-ABD (designed binder)
chain: B1 chain with R19Q, Y22T, Q26V, N32H, M43D
notes: domain: GA3
B5: Z13154-ABD (designed binder)
chain: B1 chain with R19D, N32K, Q33R, H35V, M43D
notes: domain: GA3
B6: Z13158-ABD (designed binder)
chain: B1 chain with R19D, Y22F, Q33S, M43E
notes: domain: GA3
B7: Z13164-ABD (designed binder)
chain: B1 chain with R19N, Y22Q, N32Q, Q33L, H35R, M43D
notes: domain: GA3
B8: Z13165-ABD (designed binder)
chain: B1 chain with R19Y, Y22W, Q26R, N32A, Q33S, H35Y, M43D
notes: domain: GA3
B9: Z13169-ABD (designed binder)
chain: B1 chain with Y22Q, Q26V, N32R, Q33K, H35Q, M43D
notes: domain: GA3
B10: Z13186-ABD (designed binder)
chain: B1 chain with R19T, Y22L, Q26Y, N32K, Q33D, H35V, M43D
notes: domain: GA3
B11: Z13190-ABD (designed binder)
chain: B1 chain with R19A, Y22E, Q26D, N32A, Q33G, H35M, M43D
notes: domain: GA3
B12: Z13198-ABD (designed binder)
chain: B1 chain with R19A, Q26T, Q33K, H35R, M43D
notes: domain: GA3
B13: Z13210-ABD (designed binder)
chain: B1 chain with Y22W, N32R, Q33T, H35W, M43D
notes: domain: GA3
B14: Z13304-ABD (designed binder)
chain: B1 chain with R19N, Y22S, Q26A, N32Q, Q33L, H35Y, M43A
notes: domain: GA3
B15: Z13368-ABD (designed binder)
chain: B1 chain with R19A, Y22W, Q26R, N32R, Q33H, H35Q, M43A
notes: domain: GA3
B16: Z13447-ABD (designed binder)
chain: B1 chain with R19Q, L25V, N32K, Q33G, H35T, M43D
notes: domain: GA3
B17: Z13091-ABD (designed binder)
chain: B1 chain with R19N, Y22F, Q26R, Q33G, M43A
notes: domain: GA3
B18: Z13147-ABD (designed binder)
chain: B1 chain with N32H, H35T, M43D
notes: domain: GA3

Assays:
[1] = target: T1, human PD-L2 Fc Chimera (R&D Systems, …); experiment: ELISA
[2] = target: T2, human B7-H3 Fc Chimera (R&D Systems, …); experiment: ELISA
[3] = target: T3, human B7-H4 (R&D Systems, cat. no. …); experiment: ELISA
[4] = target: T4, human PD-L1 Fc Chimera (R&D Systems, cat. no. 156-B7-100) (human, UniProt Q9NZQ7 19-239, biotinylated with Sulfo-NHS-LC-Biotin in ELISA and AlphaLISA; not biotinylated in SPR); experiment: ELISA titration, captured Z-ABD
T4 construct: bought; also called hPD-L1; biotinylated hPD-L1; not shown: Fc part of the bought Fc chimera, not described
Experimental: Half-area 96-well ELISA plates (Costar, cat. no. 3690) were coated at 4° C. overnight with 2 μg/ml of an anti-ABD goat antibody (produced in-house) diluted in coating buffer (50 mM sodium carbonate, pH 9.6; Sigma, cat. no. C3041). The antibody solution was poured off and the wells were washed in water and blocked with 100 μl of PBSC (PBS supplemented with 0.5% casein; Sigma, cat. no. C8654) for 1 to 3 h at RT. The blocking solution was discarded and 50 μl periplasmic solutions, diluted 1:1 with PBST 0.05%, were added to the wells and incubated for 1.5 to 2.5 h at RT under slow agitation. As a blank control, PBST 0.05% was added instead of a periplasmic sample. The supernatants were poured off and the wells were washed 4 times with PBST 0.05%. […] The plates were incubated for 1 h at RT followed by washes as described above. Streptavidin conjugated HRP (Thermo Scientific, cat. no. N100) diluted 1:30,000 in PBSC, was added to the wells and the plates were incubated for approximately 1 h. After washing as described above, 50 μl ImmunoPure TMB substrate (Thermo Scientific, cat. no. 34021) was added to the wells and the plates were treated according to the manufacturer's recommendations.

[5] = target: T4, human PD-L1 Fc Chimera (R&D Systems, …); experiment: ELISA titration, captured Z-ABD; remark: listed apart in the source

T4 sequence (Q9NZQ7 19-239, change not shown): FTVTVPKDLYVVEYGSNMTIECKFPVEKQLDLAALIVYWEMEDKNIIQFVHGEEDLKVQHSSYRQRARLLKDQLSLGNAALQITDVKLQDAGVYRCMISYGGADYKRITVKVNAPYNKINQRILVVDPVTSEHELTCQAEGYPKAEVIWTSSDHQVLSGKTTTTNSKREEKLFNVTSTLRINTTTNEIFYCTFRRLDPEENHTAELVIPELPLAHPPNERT

Binder	binding result [1]	binding result [2]	binding result [3]	EC50 [4] [nM]	EC50 [5] [nM]
B1	no binding (tested: 8 nM)	no binding (tested: 8 nM)	no binding (tested: 8 nM)		
B2	no binding (tested: 8 nM)	no binding (tested: 8 nM)	no binding (tested: 8 nM)	0.22	
B3	no binding (tested: 8 nM)	no binding (tested: 8 nM)	no binding (tested: 8 nM)	0.4	
B4	no binding (tested: 8 nM)	no binding (tested: 8 nM)	no binding (tested: 8 nM)		
B5	no binding (tested: 8 nM)	no binding (tested: 8 nM)	no binding (tested: 8 nM)	0.11	
B6	no binding (tested: 8 nM)	no binding (tested: 8 nM)	no binding (tested: 8 nM)	0.25	
B7	no binding (tested: 8 nM)	no binding (tested: 8 nM)	no binding (tested: 8 nM)	0.22	
B8	no binding (tested: 8 nM)	no binding (tested: 8 nM)		0.24	
B9	no binding (tested: 8 nM)	no binding (tested: 8 nM)	no binding (tested: 8 nM)	0.15	
B10	no binding (tested: 8 nM)	no binding (tested: 8 nM)	no binding (tested: 8 nM)		
B11	no binding (tested: 8 nM)	no binding (tested: 8 nM)	no binding (tested: 8 nM)		
B12	no binding (tested: 8 nM)	no binding (tested: 8 nM)	no binding (tested: 8 nM)	0.16	
B13	no binding (tested: 8 nM)	no binding (tested: 8 nM)	no binding (tested: 8 nM)		
B14	no binding (tested: 8 nM)	no binding (tested: 8 nM)	no binding (tested: 8 nM)	0.32	
B15	no binding (tested: 8 nM)	no binding (tested: 8 nM)	no binding (tested: 8 nM)		
B16	no binding (tested: 8 nM)	no binding (tested: 8 nM)	no binding (tested: 8 nM)		
B17	no binding (tested: 8 nM)	no binding (tested: 8 nM)	no binding (tested: 8 nM)	0.22	0.12
B18	no binding (tested: 8 nM)	no binding (tested: 8 nM)	no binding (tested: 8 nM)		
